According to PubChem BioAssay AID588855 (National Center for Advancing Translational Sciences (NCATS), 2011):
Screen size: about 410,000 compounds; about 5,000 (1.2%) were called active. The shares of active, inactive and inconclusive entries below differ from those in the screen. Calls come from the whole dose curve; as a rule, active = well fitted inhibition curve with a large enough effect; inconclusive = small, poorly fitted or top-dose-only effect; inactive = no such curve, though single readings can be large or run the other way. A potency beside an inconclusive call is a rough fit, not a confirmed value.

assay: qHTS for Inhibitors of TGF-b; settings: HepG2 CAGA-GFP TGF-b/SMAD3 reporter, GFP fluorescence, 18 h, TGF-beta stimulated, 500 pg/mL final; series mostly up to 46.1 µM; note: nearly all actives have a fitted effect of over 65% in size
Outline: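 Using HEPG2 CAGA-GFP reporter cells at 1000 cells/well, we pinned test compounds, stimulated with recombinant TGF-beta (500 pg/mL final) and measured total well GFP after 18 h.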
Potency is the fitted concentration of half-maximal effect; tags give direction and shape of the fitted curve.

Structure (SMILES)	Potency
COC(=O)c1ccc(NC(=O)c2ccccc2NS(C)(=O)=O)cc1	inactive
O=C(COc1ccc2c3c(c(=O)oc2c1)CCC3)N1CCN(c2ccc(F)cc2)CC1	inconclusive: 35.5 µM [inhibitor, single point]
CCOc1cccc(C(=O)Nc2cc(-c3ccc(C)cc3)no2)c1	inconclusive: 22.4 µM [inhibitor, single point]
COc1ccc2nc(SCc3ccccc3C)nc(C)c2c1	inactive
Cc1ccc(-c2nc3ccccc3c(=O)n2O)cc1	inactive
CN1CCN(c2nc3ccccc3nc2C(C#N)S(=O)(=O)c2ccccc2)CC1 (configuration not stated)	active: 7.94 µM
O=Cc1ccccc1OCCOc1ccccc1C=O	inconclusive: 11.2 µM [inhibitor, partial curve, poor fit]
Cc1cc(C)c2c(N)c(C(=O)c3ccc(Cl)c(Cl)c3)sc2n1	inconclusive: 0.562 µM [inhibitor, full curve, poor fit]
COc1cc(C=c2c3ccccc3n3c2cc(-c2ccccc2)[n+]3C)cc(OC)c1OC	inconclusive: 35.5 µM [inhibitor, single point]
CCCCCCn1c(O)c(/C=C2\C=NN=C2c2ccccc2)sc1=S	inconclusive: 11.2 µM [inhibitor, partial curve, poor fit]
O=C(Nc1ccc(S(=O)(=O)Nc2nccs2)cc1)c1cc(-c2ccccc2Cl)nc2ccccc12	inconclusive: 10 µM [inhibitor, partial curve, poor fit]
COC(=O)c1sccc1NC(=O)c1c(F)c(F)c(F)c(F)c1F	inactive
COC(=O)N1C(=O)[C@](c2ccccc2)(C2CCCC2)N1C(=O)OC	inconclusive: 35.5 µM [inhibitor, single point]
Cn1c(CSc2nc3ccccc3n2C)nc2ccccc21	inactive
COc1cc(/C=C2\SC(N)=NC2=O)cc(OC)c1	inactive
COc1cc(-c2nc3ccc(C)cn3c2NCc2ccccc2)ccc1SC1CCCCC1	inconclusive: 35.5 µM [inhibitor, single point]
CCCCN(CC)C(=O)Cn1ncc2c3ccccc3n(CCC)c2c1=O	inconclusive: 35.5 µM [inhibitor, single point]
Cc1ccc([C@@H]2CC=C(C(=O)O)[C@H](c3ccccc3F)N2S(=O)(=O)c2ccccc2C)cc1	inconclusive: 35.5 µM [inhibitor, partial curve, poor fit]
O=C(Nc1ccc(N2CCN(C(=O)c3ccco3)CC2)c(Cl)c1)c1c(F)c(F)c(F)c(F)c1F	inconclusive: 20 µM [inhibitor, partial curve, poor fit]
O=[N+]([O-])c1c(C(Cl)Cl)nn(-c2ccccc2)c1N1CCCC1	inconclusive: 35.5 µM [inhibitor, single point]
CC(N)c1csc(NC(=O)c2cc(C(C)(C)C)nn2Cc2ccccc2)n1 (configuration not stated)	active: 22.4 µM

Structure (SMILES)	Potency
CCN1CCN(c2cc(C)c3cc(NC(=S)N4CCN(c5ccccc5)CC4)ccc3n2)CC1	inconclusive: 0.794 µM [inhibitor, full curve, poor fit]
Cc1cc(C(=O)N/N=C/c2ccc(-c3ccc([N+](=O)[O-])cc3Cl)o2)n[nH]1	inactive
CCCc1cc(C(=O)Nc2ccc(C(=O)c3ccccc3)cc2)n(C)n1	inconclusive: 28.2 µM [inhibitor, single point]
COc1cc(/C=C2\SC(=S)N(NC(=O)c3ccccc3O)C2=O)ccc1O	inactive
COc1cccc(NC(=O)CN(C)C(=O)c2sc3cc(Cl)ccc3c2Cl)c1	inconclusive: 35.5 µM [inhibitor, single point]
CCOC(=O)C1CCN(C(=O)c2ccc(S(=O)(=O)Nc3ccccc3Cl)cc2)CC1	inactive
CC12CCC=CC1C(c1ccc(F)c(Br)c1)N(Cc1ccccc1)C2=O (configuration not stated)	inconclusive: 35.5 µM [inhibitor, single point]
COc1ccc(C2C3=C(CC(C)(C)CC3=O)Nc3c2c(=O)n(C)c(=O)n3C)cc1OC (configuration not stated)	inconclusive: 0.112 µM [inhibitor, full curve, poor fit]
Cc1ccn2c(=O)nc(SCC(=O)NC3CCCC3)nc2c1	inactive
Cc1cc(N=Nc2ccc(Cl)cc2)cc(CN2CCOCC2)c1O	inconclusive: 35.5 µM [inhibitor, single point]
COc1ccc(-c2nc3ccc(NS(=O)(=O)c4ccc(Cl)cc4)cc3o2)cc1	inconclusive: 17.8 µM [inhibitor, single point]
CCOc1ccc(Cn2c(CNS(=O)(=O)c3cccc(Cl)c3)nc3cccnc32)cc1	inactive
N#Cc1ccc(CN2CCN(C(=O)CCNS(=O)(=O)c3ccc(F)c(Cl)c3)CC2)cc1	inconclusive: 35.5 µM [inhibitor, partial curve, poor fit]
CCC(C)[C@H](NC(=O)NC1CCN(Cc2ccccc2)CC1)C(=O)OC (some centres not stated)	inconclusive: 6.31 µM [inhibitor, single point]
O=C1N[C@@H](Cc2ccccc2)C(=O)N2[C@@H]1C[C@@]1(Br)c3ccccc3N(S(=O)(=O)c3ccccc3)[C@@H]21	inconclusive: 6.31 µM [inhibitor, single point]
CCOC(=O)c1ccc(NC2SC(=O)N(Cc3cccc(C(=O)O)c3)C2=O)cc1 (configuration not stated)	inconclusive: 35.5 µM [inhibitor, single point]
CC1(C)CC(=O)c2cnc(NC(=O)c3ccco3)nc2C1	inconclusive: 10 µM [inhibitor, partial curve, poor fit]
Cc1nn(-c2ccc(F)cc2)c2nc(N)c(C#N)c(-c3ccc(O)c(O)c3)c12	inconclusive: 35.5 µM [inhibitor, single point]
COc1ccc(-c2c3c(=O)n(C)c(=O)n(C)c3cn2-c2cc(OC)ccc2OC)cc1	inactive
COc1cc2nc(SCC(=O)Nc3ccccc3F)n3nc(-c4ccccc4)nc3c2cc1OC	inconclusive: 6.31 µM [inhibitor, single point]
CCCn1c(NC(=O)c2cccc(C)c2C)nc2ccccc21	inconclusive: 31.6 µM [inhibitor, single point]
